This passage reports EC50 results from patent publication US20130072427A1, “GPR 119 MODULATORS” (Pfizer Inc., priority 2009, published 2013).

This test concerns the target T1, human GPR119 (Homo sapiens, UniProt Q8TDV5).
T1 construct: host or cells: HEK293-CRE beta-lactamase cells
T1 sequence (Q8TDV5 1-335): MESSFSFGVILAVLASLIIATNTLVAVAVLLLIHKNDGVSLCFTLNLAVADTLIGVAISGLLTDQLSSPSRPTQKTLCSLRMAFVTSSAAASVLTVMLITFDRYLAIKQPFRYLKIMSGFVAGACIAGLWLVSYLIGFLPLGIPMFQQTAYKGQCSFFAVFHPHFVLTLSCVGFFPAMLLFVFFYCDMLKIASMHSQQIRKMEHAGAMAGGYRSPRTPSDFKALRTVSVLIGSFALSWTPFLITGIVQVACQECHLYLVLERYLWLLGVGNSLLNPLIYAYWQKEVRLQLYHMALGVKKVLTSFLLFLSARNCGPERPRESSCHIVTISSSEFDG
The experiment in a line: cAMP functional assay (HTRF, hGPR119 HEK-CRE beta-lactamase cells). The format is cell-based. The following applies: 30 minutes, one line per run. Here is the method: GPR119 agonist activity was also determined with a cell-based assay utilizing an HTRF (Homogeneous Time-Resolved Fluorescence) cAMP detection kit (cAMP dynamic 2 Assay Kit; Cis Bio cat #62AM4PEC) that measures cAMP levels in the cell. The method is a competitive immunoassay between native cAMP produced by the cells and the cAMP labeled with the dye d2. The tracer binding is visualized by a Mab anti-cAMP labeled with Cryptate. The specific signal (i.e. energy transfer) is inversely proportional to the concentration of cAMP in either standard or sample. […]
Varying concentrations of each compound to be tested were diluted in assay buffer containing 3-isobutyl-1-methylxanthin (IBMX; Sigma cat #15879) and added to the assay plate wells in a volume of 2 microL (final IBMX concentration was 400 microM and final DMSO concentration was 0.58%). […] The plates were then incubated at room temperature and after 60 minutes, changes in the HTRF signal were read with an Envision 2104 multilabel plate reader using excitation of 330 nm and emissions of 615 and 665 nm. Raw data were converted to nM cAMP by interpolation from a cAMP standard curve (as described in the manufacturer's assay protocol) and EC50 determinations were made from an agonist-response curves analyzed with a curve fitting program using a 4-paramter logistic dose response equation.
In general terms: Time-resolved FRET reads energy transfer from a long-lived donor to a nearby acceptor.

Some entries of the source have several records that differ or are many. The list is limited to them. There may be further records. Results that share an entry seem to repeat one measurement; a mean can stand among them.

Broadly, the EC50 is the concentration giving half of the maximal effect. Consider `CC(C)OC(=O)N1CCC(Oc2ncnc(N3Cc4cnn(C)c4C3)c2C#N)CC1` [Example 3, Isopropyyl 4-{[5-cyano-6-(1-methyl-4,6-dihydropyrrolo[3,4-c]pyrazol-5(1H)-yl)pyrimidin-4-yl]oxy}piperidine-1-carboxylate], for which the EC50 is 145 nM, 153 nM, > 10 µM [lines of one column].
